Reference: publication PMC4336329 (PLoS ONE, 2015)
Out of some 310,000 compounds screened, about 14,000 (4.5%) showed an effect of 50% or more. The effect is printed as a negative number. This is one part of the list. Where a SMILES comes first, the peptide text is derived from it. [ ]: non-standard residue; d: D form. The star is where a group is joined. Hyp = O=C(O)[CH]1C[CH](O)CN1; Cbz = O=C(OCc1ccccc1)*; OBn = c1ccc(CO*)cc1

Each compound was assayed against human ether-à-go-go-related gene (hERG) potassium channel (human, UniProt Q12809) (assay: primary screen, population patch clamp on CHO cells stably expressing hERG).
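Further: peak tail current of the secondary pulse compared with the same well before compound.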

human ether-à-go-go-related gene (hERG) potassium channel, sequence (Q12809 whole entry, looked up): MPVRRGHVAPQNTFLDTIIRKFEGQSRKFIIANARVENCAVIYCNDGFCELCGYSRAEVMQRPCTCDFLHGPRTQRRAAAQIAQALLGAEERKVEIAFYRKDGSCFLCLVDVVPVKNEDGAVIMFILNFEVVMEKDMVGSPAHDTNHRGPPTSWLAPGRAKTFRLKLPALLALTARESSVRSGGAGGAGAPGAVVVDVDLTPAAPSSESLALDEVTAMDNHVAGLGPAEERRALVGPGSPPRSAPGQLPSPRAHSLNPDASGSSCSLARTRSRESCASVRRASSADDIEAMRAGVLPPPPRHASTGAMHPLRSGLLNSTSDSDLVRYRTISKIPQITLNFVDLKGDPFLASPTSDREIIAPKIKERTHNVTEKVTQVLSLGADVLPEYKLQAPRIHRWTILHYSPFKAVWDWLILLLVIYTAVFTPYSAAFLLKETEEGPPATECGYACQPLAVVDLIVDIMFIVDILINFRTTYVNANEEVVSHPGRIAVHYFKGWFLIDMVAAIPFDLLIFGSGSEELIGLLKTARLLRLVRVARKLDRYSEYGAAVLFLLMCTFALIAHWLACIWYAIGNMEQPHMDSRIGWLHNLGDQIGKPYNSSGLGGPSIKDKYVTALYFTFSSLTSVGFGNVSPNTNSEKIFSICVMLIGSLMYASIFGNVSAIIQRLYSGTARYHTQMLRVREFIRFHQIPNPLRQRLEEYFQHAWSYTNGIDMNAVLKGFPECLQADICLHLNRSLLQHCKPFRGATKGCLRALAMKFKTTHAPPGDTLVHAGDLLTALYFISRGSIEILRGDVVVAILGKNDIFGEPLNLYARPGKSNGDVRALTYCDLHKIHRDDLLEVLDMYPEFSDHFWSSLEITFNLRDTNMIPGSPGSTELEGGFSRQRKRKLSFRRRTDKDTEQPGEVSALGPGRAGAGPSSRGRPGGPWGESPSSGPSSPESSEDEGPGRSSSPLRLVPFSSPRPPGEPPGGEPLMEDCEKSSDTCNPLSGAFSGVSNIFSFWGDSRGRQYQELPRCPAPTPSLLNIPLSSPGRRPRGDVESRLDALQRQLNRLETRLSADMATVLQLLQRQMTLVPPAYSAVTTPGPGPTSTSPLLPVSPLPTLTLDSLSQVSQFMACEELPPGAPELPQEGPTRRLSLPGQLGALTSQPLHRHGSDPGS

Point of comparison: `CCOC(=O)c1[nH]c(C)c(C(=O)OCC)c1C`, “hERG current change (%, negative = inhibition) at 10uM” value 4.39%. Against it:
- CN1C=CC=C/C1=C1\SC(=S)N(Cc2ccccc2)C1=O — lower, -14.8%
- CCOC(=O)C1CCN(CCC(=O)Nc2ccc(Br)cc2)CC1 — lower, -63.5%
- Cc1csc(NC(=O)c2ccco2)n1 — lower, 2.89%
- O=C(/C=C/c1ccc(F)cc1)NNC(=O)CCN1CCN(Cc2ccccc2)CC1 — lower, -49.9%
- CC1CCN(C(=O)C2CCN(S(=O)(=O)c3cccnc3)CC2)CC1 — lower, 2.17%
- CCOC(=O)N/N=C/c1c(C)c(C(=O)c2ccc(F)cc2)n2ccccc12 — higher, 14.6%
- Nc1nonc1-n1nnc(C(=O)N/N=C/c2ccoc2)c1CSc1ccccc1 — higher, 8.02%
- CC(=O)Oc1ccccc1/C=C/c1nc2ccccc2c(=O)o1 — higher, 11.8%
- Cc1onc(-c2c(Cl)cccc2Cl)c1C(=O)NNc1ccccc1 — higher, 5.29%
- COc1ccc2ccccc2c1CN1CCSCC1 — higher, 8.1%
- O=S1(=O)CCN2C=Nc3sc4c(c3C2=N1)CCCC4 — lower, -1.29%
- CN1CCN(C=Nc2nc3ccccc3nc2N2CCCC2)CC1 — lower, -34.1%
- CCCn1nnnc1SCC(=O)N1CCOCC1 — higher, 19.2%
- Cn1nnnc1SCc1nnc(-c2ccccc2Br)o1 — lower, 2.47%
- COC(=O)c1cccc(NC(=O)CCc2ccccc2)c1 — lower, -23.3%
- CCCCCCSc1nnc(N)s1 — lower, -5.74%
- O=C(Cn1cc(C(=O)C2CC2)c2ccccc21)Nc1ccccc1Cl — higher, 15.1%
- CCn1c(SCC#N)nc2cc(S(=O)(=O)N3CCOCC3)ccc21 — higher, 11.2%
- CCOC(=O)c1ccc(NC(=O)Cn2c(=O)oc3ccccc32)cc1 — higher, 10.9%
- CCOC(=O)c1c(NC(C)=O)sc(/C(C)=N/Nc2ccc(C(=O)O)cc2)c1C — higher, 12.3%
- CCc1ccc(CNC(=O)C2CCN(S(=O)(=O)N3CCCC3)CC2)cc1 — lower, -0.739%
- Cc1cccc(NC(=S)NC(C)(C)CC(C)(C)C)c1 — higher, 11.9%
- COc1ccc(N2CCN(C(=O)CCc3ccc(S(=O)(=O)NC(C)C)cc3)CC2)cc1 — lower, -7.82%
- O=C(CSc1nnc(-c2c[nH]c3ccccc23)o1)N1CCCCC1 — lower, 0.267%
- O=[N+]([O-])c1ccc(S(=O)(=O)N2CCN(c3ccnc4cc(Cl)ccc34)CC2)cc1 — lower, -73.5%
- Cc1ccc(C(=O)Nc2ccccc2SCC2CSc3nc4ccccc4c(=O)n32)cc1 (stereo not shown) — lower, -68.4%
- O=C(CCCC(=O)OCC(Cl)=C(Cl)Cl)Nc1ccccc1F — higher, 8.74%
- CN(C)Cc1c(C(=O)N/N=C/c2ccc(OCc3c(F)cccc3Cl)cc2)nnn1-c1nonc1N — higher, 15.6%
- O=C(Nc1cccc(O)c1)c1ccccc1 — lower, 0.537%
- CCOc1ccc(/C=C2\SC(=S)NC2=O)cc1OC — higher, 26.3%
- O=C(c1ccc(CS(=O)(=O)c2ccccc2)o1)N1CCC2(CC1)OCCO2 — lower, -8.16%
- CCC(=O)NC1=C(C#N)C2(CCCC2)Cc2ccccc21 — lower, -1.89%
- CCOc1ccc2[nH]c3c(N4CCc5ccccc5C4)ncnc3c2c1 — higher, 5.49%
- Cc1ccc(NC(=O)COC(=O)c2ccc(Br)o2)cc1S(=O)(=O)N1CCCCC1 — lower, 2.27%
- CCCCCCCCCCOC(=O)C[N+](C)(C)CC1CCCCC1O.[Cl-] (stereo not shown) — lower, -38.2%
- CC1CCCCC1NC(=O)COC(=O)CN1C(=O)c2ccccc2C1=O (stereo not shown) — lower, 1.51%
- COc1ccccc1C(=O)N/N=C(\C)c1cccnc1 — lower, -10.8%
- CCC(CO)Oc1cc(NC(=O)c2ccc(F)cc2)c2ncn(C(C)C)c2c1 (stereo not shown) — higher, 10.5%
- CC1Cc2ccccc2N1C(=O)CSc1nnc(CNc2ccccc2)o1 (stereo not shown) — lower, -12.8%
- COc1cc(/C=C2\SC(=S)N(CCC(=O)N3CCCCC3)C2=O)cc(OC)c1OC — lower, 3.71%
- CC1=C(C(=O)OC2CCCC2)C(c2ccc(C)o2)C2=C(CC(c3cccs3)CC2=O)N1 (stereo not shown) — lower, -20.7%
- Cc1ccc(S[C@@H](CCN2CC[C@H](C(C)(C)C)CCC2=O)c2ccccc2)cc1 — higher, 7.63%
- Cc1ccccc1OCC(=O)N1N=C(c2cccnc2)CC1(O)C(F)(F)F (stereo not shown) — lower, -5.38%
- Cc1ccc2c(c1)c1c(n2CC(O)Cn2c(C)nc3ccccc32)C(=O)CCC1 (stereo not shown) — higher, 8.22%
- O=C(Nc1cccc(F)c1)C1CCCCC1 — lower, -9.22%
- CCOC(=O)c1ccc(-c2ccc(/C=C(\C#N)C(=O)NCC3CCCO3)o2)cc1 (stereo not shown) — lower, 0.577%
- CCOc1cc(C2NN=C(c3ccc(C)cc3)S2)ccc1O (stereo not shown) — higher, 9.67%
- CCc1ccc(C(=O)c2oc3nc(C)cc(C)c3c2N)cc1 — higher, 16.6%
- COc1ccc(/C=C/C(=O)c2ccc([N+](=O)[O-])o2)cc1 — higher, 9.27%
- O=C(CCNS(=O)(=O)c1ccc(OC(F)(F)F)cc1)N1CCN(C/C=C/c2ccccc2)CC1 — lower, -81.5%
- O=[n+]1c2c(n([O-])c3cc(F)c(N4CCCC4)cc31)CCC2 — lower, 0.13%
- Cc1ccc(CNCc2cccnc2)s1.Cl — lower, 1.1%
- O=C(NCC(=O)N1CC(O)CC1C(=O)N1CC(O)CC1C(=O)OCc1ccccc1)OCc1ccccc1 (stereo not drawn) (Cbz-Gly-[Hyp]-[Hyp]-OBn; configuration not given here) — higher, 15.5%
- O=C(COC(=O)c1ccc(Cl)c(S(=O)(=O)N2CCOCC2)c1)NCc1ccco1 — lower, -17%
- COc1ccccc1-n1c(-c2ccccc2)c[n+]2c1CCc1ccccc1-2.[Br-] — lower, -74.1%
- O=C(O)c1ccc2oc(=O)c(S(=O)(=O)c3ccccc3)cc2c1 — higher, 18%
- Nc1ncc2c(n1)-c1ccoc1CC2 — higher, 27.8%
- Cc1cccn2cc(CCNS(=O)(=O)c3cccs3)nc12 — lower, -3.37%
- CCOC(=O)CN(C(=O)CNC(=O)c1cccs1)C(C(=O)NC1CCCC1)c1cccnc1 (stereo not shown) — lower, 3.79%
- COc1ccc(C(=O)NCCCc2nc3ccccc3n2Cc2cc(C)ccc2C)cc1OC — lower, -39.7%
- CCCc1c(C)nn(-c2ncccc2[N+](=O)[O-])c1C — higher, 6.23%
- c1ccc(N2OCC3Cn4c(nc5ccccc54)C32)cc1 (stereo not shown) — lower, -5.05%
- O=C(c1cc(=O)[nH]c2ccccc12)N1CCN(S(=O)(=O)c2ccc(Cl)cc2)CC1 — lower, -23.8%
- N#Cc1cc2c(nc1SCC(=O)Nc1ccc(Cl)cc1)C1CCN2CC1 — lower, -7.69%
- CCOC(=O)CSC1=C(C#N)C(c2ccccc2OCC)C(C(=O)OCC)C(=O)N1 (stereo not shown) — lower, -7.93%
- Cc1cc(C(=O)N2CCCC(C(=O)c3cccc(C(F)(F)F)c3)C2)nc(C)n1 (stereo not shown) — lower, -9.14%
- O=C(COc1ccc(/C=N/NC(=O)c2ccncc2)cc1)Nc1cccc([N+](=O)[O-])c1 — higher, 14.1%
- COc1ccc(Br)cc1CN(C)CC(=O)Nc1cc([N+](=O)[O-])ccc1OC — lower, 3.6%
- COc1ccc(C(=O)Nc2ccccc2C(=O)N/N=C/c2ccccc2OC)cc1 — higher, 13.7%
- Cc1c(C(=O)O)c(C(=O)O)nc2ccc(N3CCOCC3)cc12 — higher, 15%
- COc1ccccc1NC(=O)CCSc1nnc(-c2ccncc2)o1 — lower, -2.96%
- CC(C)C(=O)N1CCC2(CC1)Oc1ccc(Cl)cc1C(=O)C21CC(c2cccnc2)=NO1 (stereo not shown) — lower, -27.9%
- CC(CCc1ccccc1)NC(=O)Cc1ccc([N+](=O)[O-])cc1 (stereo not shown) — lower, -43.7%
- Cc1ccnc(NS(=O)(=O)c2ccc(NC(=O)c3ccc(S(=O)(=O)N4CCCC4)cc3)cc2)n1 — higher, 7.82%
- Cc1ccc(C(=O)Nn2cnnc2)cc1Cl — higher, 16.3%
- NC(=O)C1(c2ccccc2)OC1c1ccccc1 (stereo not shown) — higher, 26.2%
- CC(C)(C)OC(=O)C(C(=O)OC(C)(C)C)c1ccc(Cl)nn1 — higher, 6%
- O=C(CCC1CCCCC1)Nc1nncs1 — lower, -3.56%
- CC(C)c1ccccc1NC(=O)C1CN(S(=O)(=O)c2ccccc2)CCN1S(=O)(=O)c1ccccc1 (stereo not shown) — higher, 11.4%
- CCN1C(=O)c2ccc(C(=O)NCc3ccccc3)cc2C1=O — lower, -4.73%
- CCOc1cc2c(cc1OCC)-n1cccc1C(c1cccc([N+](=O)[O-])c1)NC2.Cl (stereo not shown) — lower, -59.9%
- COCCNC(=O)/C(C#N)=C\c1ccc(CNS(=O)(=O)c2ccc(C)cc2)o1 — higher, 37.1%
- O=C1NCCCC1C(=O)NCCNC(=O)C(F)(F)F (stereo not shown) — higher, 14.1%
- CCN1C(=O)/C(=C\c2nc3ccccc3c(=O)n2-c2ccccc2)c2ccccc21 — higher, 16.6%
- Cc1cccc(N2CCN(C(=O)c3ccc(CNc4c(N5CCC(C)CC5)c(=O)c4=O)cc3)CC2)c1C — higher, 10.5%
- O=C(C1=COCCO1)N1CCN(S(=O)(=O)c2cccc(Br)c2)CC1 — lower, -13.1%
- COCCCNC(=O)C1CCN(C(=O)c2cc3sccc3n2Cc2ccc(F)cc2)CC1 — lower, -30%
